These results are taken from the RNAGym collection of RNA variant scans (doi:10.7554/elife.90254).

First the molecules themselves.
B1: OR4K15 (parent)
chain: GUUAACGGUCAUAGGCCAUGGAAACUAGGAGCACCAUUUCGCUGCCAGUGAAGAAAUGAACAAAGAAAAUCUGGGCCAGGCAGGCAUCAAAAGAAAUAGUCUUGCGCUCAACCAGAAAGUCUGUAAUCAUUUUAAGGGUA

The source gives no read counts; variants with many changes may rest on few reads.

This series covers variants of B1. The experiment in a line: self-cleavage, relative activity (ratio to wild type); higher = more cleavage; in vitro, sequencing; the parent is a self-cleaving ribozyme.
Consider A23G A116G A129G, for which the self-cleavage is 0.44.
For A23G A47U U130C, the self-cleavage was determined as 0.38.
The figure for A23G A111G A116U is 0.01.
The figure for A23G A78G U127C is 0.15; for A23G A92U U120C it is 0.96; for A24C A51G A67G A91G it is 0.89.
As to A23G A51G A54G A90G A91G, the self-cleavage worked out at 1.01.
The figure for A23G A59G U97C A118G is 0.38; for A23U A111G U127C it is 0.03.
With A24G A52G U87C A89G A118G the figure was 0.42.
The figure for A23G A92G A96G is 0.8; for A23G U39A A69G it is 0.72; for A23G A47G A52G A55G A59G A62G it is 0.67.
On to A24C U38C U49C A86G, for which the self-cleavage was determined as 0.72.
With A23G A55U A60G A95G A110G the figure was 0.1; with A23G U57C A82U, 0.26.
The figure for A23G A90G U103C is 0.14.
The figure for A23G A30G A69G is 0.91; for A24C A56G U133C it is 2.46; for A23G A91G U97A A114G it is 0.17.
For A23G U39C U43G A51G U108A, the self-cleavage is 0.04.
As for A23G A30G U49C A54G A118G, the self-cleavage came to 0.64.
Consider A23G A95G U122C, for which the self-cleavage came out at 1.23.
The figure for A23G G31A A111G is 0.02.
With A24G A51U A69U A98G A118G the figure was 0.26; with A24G A52G A94U U132C, 1.41.
On to A23G A33G A51G U120C, for which the self-cleavage is 0.27.
With A23G A91U A125G the figure was 0.39; with A23G A55C G73A A125G, 0.
Take A23U A55U U57C A66U A78G A94C U132C: the self-cleavage was 0.1.
With A23G A67U A94G the figure was 1.34; with A23U U49C A60G, 1.03; with A24G A30U U124C, 0.74.
With A23G A62G A63G A118G A135U the figure was 1.69; with A24G A33U U57C A59G U130C, 0.92.
The figure for A23G U37C U87C is 1.76; for A24G A47U A90C U102A A118G it is 0.14.
For A24G A36C U108C, the self-cleavage turned out to be 0.05.
With A23G U72C A78G the figure was 0.24; with A23U U72C U102C, 0.5; with A23G G75C G123A A126U, 0.23.
The figure for A23G A24G A92U U108C is 0.07; for A23U U57A A59G U87C A110G it is 0.15.
With A23G A36G G83U A94G A116G U130C the figure was 0.08; with A23G A64G A90G A116G, 0.19.
In the case of A23U A55G A89U A95G A110G U131C A135U, the self-cleavage is 0.17.
As for A24C A52G U132C, the self-cleavage was 1.23.
For A23G A59G A68G, the self-cleavage was determined as 0.77.
As for A23G A60G A82U A86U A98G U127A U132C, the self-cleavage was 0.03.
Regarding A23G A30G A51U A55G A62G U103C, the self-cleavage is 0.61.
With A23G A30G U132C G136A, the self-cleavage worked out at 1.3.
As for A23U A51G G123A U139C, the self-cleavage turned out to be 1.06.
As for A24G A52U A91G, the self-cleavage turned out to be 1.09.
With A23G A52G A67G A94G U127C the figure was 0.28.
The figure for A24G A33G A52C A69G A117G is 0.48.
The figure for A23G U38A A60G is 0.51.
As to A23G A33G G41A, the self-cleavage was 1.14.
The figure for A23G A90G A94G U131C is 0.54; for A23G A36G A114G it is 0.63; for A23G A54G A60U A63G U70A it is 1.54.
With A23G U38C U43A the figure was 0.95.
The figure for A23G A67G U127C is 1.78; for A24C A78G A117G U132C it is 0.26.
Turning to A23U U26C A60G U103C, the self-cleavage amounted to 0.93.
With A23G A55G G73U U130C the figure was 0.18; with A24G A30C U122A, 1.1.
With A23U A47G A126G U130C the figure was 0.61.
A23G A55G A60G U87C: the self-cleavage was determined as 0.96.
With A23G U57C A78U the figure was 0.23; with A24C A96G U120A, 2.35.
The figure for A24C A54G A114G is 0.48; for A23G A52G A111G U132C it is 0.01.
With A23G U43C A90G U127C the figure was 1.04; with A23G U49C A66G, 1.69; with A24G A30G G74U U108C, 0.04.
As to A23G C88U A89G, the self-cleavage was determined as 0.55.
Regarding A23U A24G A47G U72C, the self-cleavage worked out at 0.
The figure for A24G A27G A82G is 0.37; for A23G U49C U133C it is 1.46; for A24G A52U A66G A117G it is 1.44.
Regarding A23G A56G A86U U102C A126G, the self-cleavage worked out at 1.26.
A24G A36G U39A G44A A117G A134G: the self-cleavage is 2.05.
With A24C A59U A118G U139C the figure was 1.19.
